PubChem BioAssay AID504467 (National Center for Advancing Translational Sciences (NCATS), 2011)
The whole screen tested about 330,000 compounds, of which about 7,700 (2.3%) were called active. About 26% were inconclusive and are not listed. The call rests on the fitted dose curve; in most records, active means well fitted inhibition curve with a large enough effect; inconclusive means small, poorly fitted or top-dose-only effect, or effect the other way; inactive means flat fitted curve, though single readings scatter. The list shows a part of the results, in another mix than the full data.

test: qHTS screen for small molecules that inhibit ELG1-dependent DNA repair in human embryonic kidney (HEK293T) cells expressing luciferase-tagged ELG1; conditions: HEK293T ELG1-luciferase reporter, luminescence, 16 h, DNA damage induced by 5-fluorouridine; series mostly up to 46.1 µM; activity change, negative = inhibition: at the top concentration; further: nearly all actives have a fitted effect of over 55% in size
Description: NIH Molecular Libraries Probe Production Network [MLPCN] NIH Chemical Genomics Center [NCGC] MLPCN Grant: 1 R03 MH092164-01 Assay Provider: Kyungjae Myung, NHGRI, NIH Keywords: MLPCN, qHTS, NCGC, genotoxicity, cancer Assay Overview: Cancer cells divide rapidly compared to normal cells in the body. During cell division, cancer cells need to duplicate their genome by DNA replication. The failure of genome duplication leads to cancer cells' death. Therefore, inhibitors of DNA replication could specifically kill cancer cells. Based on this concept, many chemotherapeutic agents were developed and have been used to treat cancer patients. However, there are a limited number of agents available in the clinical setting, and some of those that do exist have low efficacy and severe side effects. Therefore, if we can find the compounds that effectively block DNA replication either by directly damaging DNA or by inhibiting other cellular mechanisms, the options for cancer treatment will be broadened. With this in mind, we developed a quantitative high-throughput ELG1-luciferase reporter gene assay. Small molecules that specifically block ELG1 function in response to DNA damage can be identified by monitoring the suppression of luciferase activity. Since ELG1 defines a pathway for repairing DNA damage, agents blocking ELG1 function can be used to sensitize cancer cells to chemotherapeutic agents whose mechanism of action involves the induction of DNA damage.
Assay Protocol Summary: For genotoxicity screening, 2,000 cells in 4 uL/well were dispensed into white, solid-bottom 1536-well plates using a solenoid-based dispenser. Following transfer of 1 uL 5-Fluorouridine and 23 nL compound or DMSO vehicle by a pin tool, the plates were incubated 16 hr at 37 °C and 5% CO2. 5 ul ONE-Glo (Promega) was then added to each plate and following a 30 min incubation at room temperature, luciferase activity was quantified on a ViewLux CCD-based plate reader.
On the % scale 0 is the no-effect control and ±100 the full control effect; potency means the concentration at half of the fitted maximal effect.

Compound	activity change, negative = inhibition	Potency
OCC[C@H]1C[C@@H](O)[C@H](O)[C@@]2(CCCc3ccccc3O2)O1	inactive: 0.722%	–
OCC[C@H]1C[C@@H](O)[C@H](O)[C@@]2(Cc3ccccc3CO2)O1	inactive: 7.84%	–
CC(C)(C)SC(=O)CC1NS(=O)(=O)OC2CCCCC12 (configuration not stated)	inactive: -2.8%	–
C=C[C@]1(C)C=C2CCC3[C@](C)(CCC[C@@]3(C)C(=O)O)C2CC1 (some centres not stated)	inactive: 0.945%	–
Cn1c(=O)c(C(=O)COC(=O)c2cc(-c3ccco3)nc3ccccc23)c(N)n(CC2CC2)c1=O	–	active: 6.51 µM
C[C@@H]1CC[C@]2(O[C@@H](CCO)C[C@H](O)[C@H]2O)O1	inactive: 9.4%	–
O=C(CSc1nc(-c2ccccc2)cs1)NC(=O)NCc1ccco1	–	active: 18.4 µM
C[C@H](CCC(=O)NCC(=O)O)[C@H]1CC[C@H]2C3[C@H](O)C[C@@H]4C[C@H](O)CC[C@]4(C)[C@H]3C[C@H](O)[C@]12C (some centres not stated)	inactive: 15.2%	–
OCC[C@@H]1C[C@H](O)[C@@H](O)[C@@]2(CCc3ccccc3O2)O1	inactive: 10.3%	–
CCOC(=O)/C(C#N)=C1/C(=O)N(Cc2ccccc2)c2ccccc21	inactive: -16.2%	–
CCOC(=O)[C@@H]1[C@H]2COc3cc(OC)ccc3[C@H]2N2C(=O)N(c3cccc(F)c3)C(=O)[C@@]12C	inactive: -17.8%	–
COc1ccc(N=C/C=C2/C=C(c3ccccc3)OC(C)(C)O2)cc1	inactive: -17.7%	–
COc1cccc(-n2nc(-c3ccnn3-c3ccc(C)cc3)c(=O)n(C)c2=O)c1	–	active: 20.6 µM
CCOC(=O)[C@@H]1[C@H]2COc3ccccc3[C@@H]2N2C(=O)N(c3ccc(C)cc3)C(=O)[C@@]12C	inactive: 16.3%	–
CC(C)[C@H]1C(=O)Nc2ccccc2N1C(=O)N[C@@H](Cc1ccccc1)C(=O)N[C@@H](C(=O)O)c1ccccc1	inactive: 24.5%	–
NC(=O)C1=C[C@H](c2coc3ccccc3c2=O)C[C@H](OCCCCO)O1	inactive: 0%	–
CCC(=O)O[C@]1(C(=O)CCl)[C@@H](C)C[C@H]2[C@@H]3CCC4=CC(=O)C=C[C@]4(C)[C@@]3(F)[C@@H](O)C[C@@]21C	inactive: 4.49%	–
OCC[C@H]1C[C@H](O)[C@@H](O)[C@]2(CCCc3ccccc3O2)O1	inactive: 0.344%	–
O=C(C[C@@H]1C/C=C\C[C@@H](Cc2ccc(F)cc2)C(=O)OC[C@@H]2CCCN2C1=O)NCCO	inactive: 15.2%	–

Compound	activity change, negative = inhibition	Potency
CC(=O)C[C@H](O)CC(=O)[C@H]1OC(=O)[C@@H](C)C/C=C\Cc2ccccc21	inactive: 7.23%	–
COCCN(Cc1ccccc1)C(=O)c1cccc(S(=O)(=O)N2CCN(c3ccccc3)CC2)c1	–	active: 14.6 µM
CC(=O)C[C@@H](O)CC(=O)[C@H]1OC(=O)[C@H](C)C/C=C\Cc2ccccc21	inactive: -1.85%	–
CC[C@]12CCCN3CCc4c(n(c5ccccc45)[C@](O)(C(=O)OC)C1)[C@@H]32	inactive: -3.14%	–
C/C(=C\C(=O)N1CCc2ccccc21)C(=O)O	inactive: 2.19%	–
O=C(Nc1ccccn1)c1ccc(CN(c2ccccc2)S(=O)(=O)c2ccccc2)cc1	–	active: 18.3 µM
COC(=O)[C@H](CC(C)C)NS(=O)(=O)N(Cc1ccccc1)[C@@H](CC(C)C)C(=O)OC	inactive: -13.3%	–
O=C(O)/C=C/C(=O)Nc1ccc(OCc2ccccc2)cc1	inactive: 13.5%	–
CCN(CC)CCOC(=O)c1ccc(NC(=O)CCCN2C(=O)/C(=C/c3cccs3)SC2=S)cc1	inactive: 12%	–
OCC[C@@H]1C[C@@H](O)[C@H](O)[C@@]2(CCc3ccccc3CO2)O1	inactive: 22.5%	–
C[C@@H]1C[C@H]2[C@@H]3CCC4=CC(=O)C=C[C@]4(C)[C@@]3(F)[C@@H](O)C[C@]2(C)[C@@]1(O)C(=O)CO	inactive: 15.6%	–
CCOc1ccc(-c2nc(CSCC(=O)NCc3ccco3)c(C)o2)cc1	–	active: 7.31 µM
O=C(C[C@@H]1C/C=C\CCC(=O)OC[C@@H]2CCCN2C1=O)N[C@H](CO)Cc1ccccc1	inactive: 17.7%	–
CC(/C=C/C1(O)C(C)CC(O)CC1(C)C)OC1OC(CO)C(O)C(O)C1O (configuration not stated)	inactive: -0.413%	–
C[C@@]12C(=O)N(c3ccc(Br)cc3)C(=O)N1[C@@H]1c3ccccc3OC[C@@H]1[C@H]2c1ccccc1	inactive: -2.42%	–
O=C(C1=C[C@@H](C2CCCCC2)C[C@@H](OCCCCO)O1)N1CCN(Cc2ccc3c(c2)OCO3)CC1	inactive: -15.4%	–
Cc1cc(=O)oc2cc(OS(C)(=O)=O)ccc12	inactive: 2.77%	–
CCn1c(C)cc(/C=C2\NC(=O)N(CC(=O)Nc3cccc(C)c3)C2=O)c1C	inactive: -1.62%	–
